MIC of invasive clinical C. tropicalis isolates, CLSI broth microdilution (fluconazole 0.12-256 mg/L, up to 1,024 for the azole-resistant cluster and its neighbour group; other ranges not stated); higher = less susceptible. Call: susceptible or wild type [S] / resistant or non-wild type [R] by CLSI breakpoints or cut-offs; intermediate and dose-dependent carry no call. '<=' and '>=' at the end values are inferred; the source marks only some of them. Isolates are numbered anew.
The test systems below were run with CCCCCOc1ccc(-c2ccc(-c3ccc(C(=O)N[C@H]4C[C@@H](O)[C@@H](O)NC(=O)[C@@H]5[C@@H](O)[C@@H](C)CN5C(=O)[C@H]([C@@H](C)O)NC(=O)[C@H]([C@H](O)[C@@H](O)c5ccc(O)cc5)NC(=O)[C@@H]5C[C@@H](O)CN5C(=O)[C@H]([C@@H](C)O)NC4=O)cc3)cc2)cc1 [anidulafungin] (assay: CLSI broth microdilution.).
Test System “Candida tropicalis isolate 237 (ERG11 copies: 7, Erg11p: Y132F, S154F (heterozygous))” has an MIC of 0.06 mg/L [S].
For “Candida tropicalis isolate 413 (ERG11 copies: 8, Erg11p: Y132F, S154F (heterozygous))”, the MIC was 0.25 mg/L [S].
Work on “Candida tropicalis isolate 387 (ERG11 copies: 2, Erg11p: no key change)” yielded an MIC of 0.03 mg/L [S].
Test System “Candida tropicalis isolate 215 (ERG11 copies: 2, Erg11p: Y257H (homozygous))” has an MIC of 0.06 mg/L [S].
“Candida tropicalis isolate 345 (ERG11 copies: 2, Erg11p: no key change)” showed an MIC of 0.06 mg/L [S].
With “Candida tropicalis isolate 122 (ERG11 copies: 2, Erg11p: no key change)” the MIC was 0.03 mg/L [S].
In the case of “Candida tropicalis isolate 112 (ERG11 copies: 5, Erg11p: Y132F, S154F (heterozygous))”, the MIC is reported as 0.12 mg/L [S].
“Candida tropicalis isolate 367 (ERG11 copies: 2, Erg11p: no key change)” showed an MIC of 0.12 mg/L [S].
Work on “Candida tropicalis isolate 235 (ERG11 copies: 2, Erg11p: no key change)” yielded an MIC of 0.06 mg/L [S].

These test systems were tested with OC(Cn1cncn1)(Cn1cncn1)c1ccc(F)cc1F [fluconazole] (assay: CLSI broth microdilution.).
Work on “Candida tropicalis isolate 402 (ERG11 copies: 2, Erg11p: no key change)” yielded an MIC of 1 mg/L [S].
“Candida tropicalis isolate 27 (ERG11 copies: 2, Erg11p: no key change)” was tested, and the MIC was 128 mg/L [R].
“Candida tropicalis isolate 99 (ERG11 copies: 2, Erg11p: no key change)” gave an MIC of 0.5 mg/L [S].
For “Candida tropicalis isolate 340 (ERG11 copies: 2, Erg11p: no key change)”, the MIC was 1 mg/L [S].
“Candida tropicalis isolate 410 (ERG11 copies: 8, Erg11p: Y132F, S154F (heterozygous))” was tested, and the MIC was 512 mg/L [R].
Work on “Candida tropicalis isolate 416 (ERG11 copies: 2, Erg11p: no key change)” yielded an MIC of 2 mg/L [S].
With “Candida tropicalis isolate 318 (ERG11 copies: 2, Erg11p: no key change)” the MIC was 1 mg/L [S].
Work on “Candida tropicalis isolate 320 (ERG11 copies: 2, Erg11p: no key change)” yielded an MIC of 2 mg/L [S].
With “Candida tropicalis isolate 226 (ERG11 copies: 2, Erg11p: no key change)” the MIC was 4 µg/mL.
“Candida tropicalis isolate 266 (ERG11 copies: 2, Erg11p: no key change)” gave an MIC of 2 mg/L [S].
In the case of “Candida tropicalis isolate 271 (ERG11 copies: 2, Erg11p: no key change)”, the MIC is reported as 0.5 mg/L [S].
Test System “Candida tropicalis isolate 63 (ERG11 copies: 2, Erg11p: no key change)” has an MIC of 1 mg/L [S].
For “Candida tropicalis isolate 386 (ERG11 copies: 2, Erg11p: no key change)”, the MIC was 2 mg/L [S].
“Candida tropicalis isolate 23 (ERG11 copies: 2, Erg11p: no key change)” was tested, and the MIC was 1 mg/L [S].
With “Candida tropicalis isolate 72 (ERG11 copies: 2, Erg11p: no key change)” the MIC was 4 µg/mL.
In the case of “Candida tropicalis isolate 430 (ERG11 copies: 2, Erg11p: no key change)”, the MIC is reported as 0.12 mg/L [S].
“Candida tropicalis isolate 147 (ERG11 copies: 2, Erg11p: no key change)” showed an MIC of 2 mg/L [S].
For “Candida tropicalis isolate 309 (ERG11 copies: 2, Erg11p: no key change)”, the MIC was 0.25 mg/L [S].
Work on “Candida tropicalis isolate 262 (ERG11 copies: 2, Erg11p: no key change)” yielded an MIC of 1 mg/L [S].
Test System “Candida tropicalis isolate 31 (ERG11 copies: 2, Erg11p: no key change)” has an MIC of 2 mg/L [S].
“Candida tropicalis isolate 397 (ERG11 copies: 7, Erg11p: Y132F, S154F (heterozygous))” was tested, and the MIC was 512 mg/L [R].
“Candida tropicalis isolate 419 (ERG11 copies: 2, Erg11p: no key change)” was tested, and the MIC was 2 mg/L [S].
“Candida tropicalis isolate 314 (ERG11 copies: 2, Erg11p: no key change)” was tested, and the MIC was 1 mg/L [S].
“Candida tropicalis isolate 361 (ERG11 copies: 2, Erg11p: no key change)” gave an MIC of 1 mg/L [S].
For “Candida tropicalis isolate 26 (ERG11 copies: 2, Erg11p: no key change)”, the MIC was 0.25 mg/L [S].
“Candida tropicalis isolate 441 (ERG11 copies: 2, Erg11p: no key change)” gave an MIC of 2 mg/L [S].
For “Candida tropicalis isolate 8 (ERG11 copies: 2, Erg11p: no key change)”, the MIC was 2 mg/L [S].
“Candida tropicalis isolate 237 (ERG11 copies: 7, Erg11p: Y132F, S154F (heterozygous))” was tested, and the MIC was 512 mg/L [R].
For “Candida tropicalis isolate 413 (ERG11 copies: 8, Erg11p: Y132F, S154F (heterozygous))”, the MIC was 512 mg/L [R].
For “Candida tropicalis isolate 387 (ERG11 copies: 2, Erg11p: no key change)”, the MIC was 1 mg/L [S].
“Candida tropicalis isolate 215 (ERG11 copies: 2, Erg11p: Y257H (homozygous))” was tested, and the MIC was 4 µg/mL.
For “Candida tropicalis isolate 345 (ERG11 copies: 2, Erg11p: no key change)”, the MIC was 2 mg/L [S].
With “Candida tropicalis isolate 122 (ERG11 copies: 2, Erg11p: no key change)” the MIC was 2 mg/L [S].
“Candida tropicalis isolate 112 (ERG11 copies: 5, Erg11p: Y132F, S154F (heterozygous))” showed an MIC of 256 mg/L [R].
Test System “Candida tropicalis isolate 367 (ERG11 copies: 2, Erg11p: no key change)” has an MIC of 1 mg/L [S].
“Candida tropicalis isolate 235 (ERG11 copies: 2, Erg11p: no key change)” was tested, and the MIC was 1 mg/L [S].

The test systems below were run with CCCCCOc1ccc(-c2cc(-c3ccc(C(=O)N[C@H]4C[C@@H](O)[C@@H](O)NC(=O)[C@@H]5[C@@H](O)[C@@H](C)CN5C(=O)[C@H]([C@H](O)CC(N)=O)NC(=O)[C@H]([C@H](O)[C@@H](O)c5ccc(O)c(OS(=O)(=O)O)c5)NC(=O)[C@@H]5C[C@@H](O)CN5C(=O)[C@H]([C@@H](C)O)NC4=O)cc3)no2)cc1 [micafungin] (assay: CLSI broth microdilution.).
For “Candida tropicalis isolate 402 (ERG11 copies: 2, Erg11p: no key change)”, the MIC was 0.06 mg/L [S].
Work on “Candida tropicalis isolate 27 (ERG11 copies: 2, Erg11p: no key change)” yielded an MIC of 0.03 mg/L [S].
For “Candida tropicalis isolate 99 (ERG11 copies: 2, Erg11p: no key change)”, the MIC was 0.015 mg/L [S].
Test System “Candida tropicalis isolate 340 (ERG11 copies: 2, Erg11p: no key change)” has an MIC of 0.06 mg/L [S].
With “Candida tropicalis isolate 410 (ERG11 copies: 8, Erg11p: Y132F, S154F (heterozygous))” the MIC was 0.03 mg/L [S].
With “Candida tropicalis isolate 416 (ERG11 copies: 2, Erg11p: no key change)” the MIC was 0.06 mg/L [S].
“Candida tropicalis isolate 318 (ERG11 copies: 2, Erg11p: no key change)” gave an MIC of 0.03 mg/L [S].
Work on “Candida tropicalis isolate 320 (ERG11 copies: 2, Erg11p: no key change)” yielded an MIC of 0.03 mg/L [S].
With “Candida tropicalis isolate 226 (ERG11 copies: 2, Erg11p: no key change)” the MIC was 0.03 mg/L [S].
With “Candida tropicalis isolate 266 (ERG11 copies: 2, Erg11p: no key change)” the MIC was 0.015 mg/L [S].
In the case of “Candida tropicalis isolate 271 (ERG11 copies: 2, Erg11p: no key change)”, the MIC is reported as 0.03 mg/L [S].
For “Candida tropicalis isolate 63 (ERG11 copies: 2, Erg11p: no key change)”, the MIC was 0.06 mg/L [S].
Work on “Candida tropicalis isolate 386 (ERG11 copies: 2, Erg11p: no key change)” yielded an MIC of 0.06 mg/L [S].
Work on “Candida tropicalis isolate 23 (ERG11 copies: 2, Erg11p: no key change)” yielded an MIC of 0.03 mg/L [S].
“Candida tropicalis isolate 72 (ERG11 copies: 2, Erg11p: no key change)” was tested, and the MIC was 0.03 mg/L [S].
“Candida tropicalis isolate 430 (ERG11 copies: 2, Erg11p: no key change)” gave an MIC of 0.03 mg/L [S].
“Candida tropicalis isolate 147 (ERG11 copies: 2, Erg11p: no key change)” was tested, and the MIC was 0.03 mg/L [S].
“Candida tropicalis isolate 309 (ERG11 copies: 2, Erg11p: no key change)” showed an MIC of 0.015 mg/L [S].
With “Candida tropicalis isolate 262 (ERG11 copies: 2, Erg11p: no key change)” the MIC was 0.03 mg/L [S].
Test System “Candida tropicalis isolate 31 (ERG11 copies: 2, Erg11p: no key change)” has an MIC of 0.06 mg/L [S].
For “Candida tropicalis isolate 397 (ERG11 copies: 7, Erg11p: Y132F, S154F (heterozygous))”, the MIC was 0.03 mg/L [S].
With “Candida tropicalis isolate 419 (ERG11 copies: 2, Erg11p: no key change)” the MIC was 0.03 mg/L [S].
With “Candida tropicalis isolate 314 (ERG11 copies: 2, Erg11p: no key change)” the MIC was 0.015 mg/L [S].
“Candida tropicalis isolate 361 (ERG11 copies: 2, Erg11p: no key change)” showed an MIC of 0.03 mg/L [S].
“Candida tropicalis isolate 26 (ERG11 copies: 2, Erg11p: no key change)” was tested, and the MIC was 0.015 mg/L [S].
With “Candida tropicalis isolate 441 (ERG11 copies: 2, Erg11p: no key change)” the MIC was 0.06 mg/L [S].
For “Candida tropicalis isolate 8 (ERG11 copies: 2, Erg11p: no key change)”, the MIC was 0.03 mg/L [S].
Work on “Candida tropicalis isolate 237 (ERG11 copies: 7, Erg11p: Y132F, S154F (heterozygous))” yielded an MIC of 0.06 mg/L [S].
“Candida tropicalis isolate 413 (ERG11 copies: 8, Erg11p: Y132F, S154F (heterozygous))” showed an MIC of 0.03 mg/L [S].
In the case of “Candida tropicalis isolate 387 (ERG11 copies: 2, Erg11p: no key change)”, the MIC is reported as 0.015 mg/L [S].
“Candida tropicalis isolate 215 (ERG11 copies: 2, Erg11p: Y257H (homozygous))” showed an MIC of 0.03 mg/L [S].
“Candida tropicalis isolate 345 (ERG11 copies: 2, Erg11p: no key change)” showed an MIC of 0.03 mg/L [S].
For “Candida tropicalis isolate 122 (ERG11 copies: 2, Erg11p: no key change)”, the MIC was 0.03 mg/L [S].
“Candida tropicalis isolate 112 (ERG11 copies: 5, Erg11p: Y132F, S154F (heterozygous))” gave an MIC of 0.03 mg/L [S].
“Candida tropicalis isolate 367 (ERG11 copies: 2, Erg11p: no key change)” was tested, and the MIC was 0.03 mg/L [S].
“Candida tropicalis isolate 235 (ERG11 copies: 2, Erg11p: no key change)” was tested, and the MIC was 0.03 mg/L [S].

From the supplement of paper PMC10724272
